According to the supplement of paper PMC3334620:
Whole data set: some 33,000 sequences, median “E-score (-0.5 to 0.5)” near -0.016, cut for the highest 2% near 0.32. Some of the results follow.

These sequences were tested against T1, Stp1 (UniProt B3LFK1) (assay: PBM E-score (8-mer binding enrichment) (E-score (-0.5 to 0.5)); higher = stronger / more preferred TF binding; most listed sequences are background and not binding sites). Settings: protein concentration: 200 nM; construct: GST-full length.
T1 sequence: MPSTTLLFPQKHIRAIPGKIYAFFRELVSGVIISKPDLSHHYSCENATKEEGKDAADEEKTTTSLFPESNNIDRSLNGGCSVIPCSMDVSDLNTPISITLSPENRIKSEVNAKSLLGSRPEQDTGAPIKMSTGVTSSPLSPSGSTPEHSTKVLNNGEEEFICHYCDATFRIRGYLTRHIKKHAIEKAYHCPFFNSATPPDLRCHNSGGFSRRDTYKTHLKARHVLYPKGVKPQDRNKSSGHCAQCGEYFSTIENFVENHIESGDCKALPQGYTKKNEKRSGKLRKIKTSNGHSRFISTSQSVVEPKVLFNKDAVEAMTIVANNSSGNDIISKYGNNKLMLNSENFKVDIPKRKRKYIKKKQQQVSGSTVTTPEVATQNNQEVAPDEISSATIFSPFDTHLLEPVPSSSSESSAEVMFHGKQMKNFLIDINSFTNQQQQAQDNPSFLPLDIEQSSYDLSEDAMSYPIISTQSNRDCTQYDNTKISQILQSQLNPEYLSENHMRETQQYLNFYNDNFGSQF
Method: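 Universal 'all 10-mer' protein binding microarrays (Agilent AMADID 015681) probed with GST-tagged S. cerevisiae TFs (full-length or DBD) made by in vitro transcription/translation (PURExpress), about 100-200 nM. Bound TF was detected with fluorescent anti-GST. Each ungapped 8-mer (which stands for itself and its reverse complement) is scored by the PBM enrichment score (E-score), a modified Wilcoxon-Mann-Whitney statistic from -0.5 to +0.5, computed with the Universal PBM Analysis Suite. Scale: above 0.35 generally sequence-specific binding.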

Sequence	PBM E-score
AAGACCGA	-0.107
AACGTTAT	-0.04
ATTGCGGG	-0.011
ACGTAACT	-0.261
CCGGATCG	-0.23
GGTCGGGA	-0.152
ACATACCA	-0.116
CTCATTCC	-0.0804
CGGCAATC	0.332
CGCATGGC	0.298
GAAAGACA	0.209
AGAGCAAC	-0.121
GATGACGC	-0.00207
AGTATTTG	-0.0109
AACCGCCT	0.0265
AGCAGGTG	0.139
ACGATTAT	-0.0115
AGGAAATG	0.108
TAAGTAAA	0.16
AACAGCTC	0.00991
GCGCCCCA	0.353
ATGTCGCC	0.266

Sequence	PBM E-score
AAAGTTAG	0.0741
CATACCAG	-0.177
GCTGGTTA	-0.0873
ATATGAAG	0.0152
CACTAGCC	0.156
ATGTGCAA	0.0181
CACAAAAA	0.166
CGAGCCAG	-0.0845
CCGTACAA	0.35
ATAACGTG	0.00931
ACACTGGT	-0.0774
AATCCACC	-0.2
ACTGTACG	0.0416
CAAGCCAG	-0.161
AGCCTATC	-0.126
CAAATGGA	0.0629
AGCGGGCA	-0.0624
ATTTTGAG	0.111
CGGTCACC	-0.0662
ACAGTTTG	-0.0108
CAGTTGCG	-0.0257
AAGCTAAA	-0.116

Sequence	PBM E-score
ATAACCAT	-0.0986
CTGCAAGA	-0.119
ACCCCATG	-0.104
GACAGAAC	0.0155
GGGAGTCA	-0.324
ATTATCGG	0.0172
ACCCCGGG	-0.171
CGTGCTCC	0.0298
GCTCCATA	0.00126
CTACCGGC	-0.112
ACCTTGCG	0.13
AAGCTACT	-0.0664
AGAGTCCA	-0.134
ATTCGGTG	-0.0133
GACTGACA	-0.113
GACTCTCC	-0.149
AAATCCGT	0.229
CAAAGAAA	0.048
TTCCGGAA	0.0276
CTGGATGC	-0.161
AACTCCTT	-0.0422
GAGTCATC	-0.206

Sequence	PBM E-score
ACCTACCG	-0.239
CGCTGAAG	-0.108
CCGTTGCA	0.19
GTTATGAA	0.152
CAATTGAA	-0.0308
ACGTGCAG	0.105
ATGAAGGA	0.145
CTCTTTGA	-0.116
ACCTCGCG	0.00655
ATCAATTG	0.217
GCCACCCA	-0.0763
ACTTACCC	-0.132
ACTTCGTA	-0.161
AGCGTCAG	-0.101
AAGAATCG	0.136
GACAACGC	0.08
CCTGATGA	0.0673
ACTACCTC	-0.21
CAAACAAC	0.137
ATAAACCC	0.0437
